Measurements taken from patent US20110301335A1.

Columns and labels:
[1] = biological target: mouse TNFR1 on L929 cells (mouse) (UniProt P25118); test: cell-based or functional assay
[2] = biological target: human TNFR1 on MRC-5 cells (human) (UniProt P19438); test: cell-based or functional assay
Sequence of UniProt P19438 (P19438 30-455): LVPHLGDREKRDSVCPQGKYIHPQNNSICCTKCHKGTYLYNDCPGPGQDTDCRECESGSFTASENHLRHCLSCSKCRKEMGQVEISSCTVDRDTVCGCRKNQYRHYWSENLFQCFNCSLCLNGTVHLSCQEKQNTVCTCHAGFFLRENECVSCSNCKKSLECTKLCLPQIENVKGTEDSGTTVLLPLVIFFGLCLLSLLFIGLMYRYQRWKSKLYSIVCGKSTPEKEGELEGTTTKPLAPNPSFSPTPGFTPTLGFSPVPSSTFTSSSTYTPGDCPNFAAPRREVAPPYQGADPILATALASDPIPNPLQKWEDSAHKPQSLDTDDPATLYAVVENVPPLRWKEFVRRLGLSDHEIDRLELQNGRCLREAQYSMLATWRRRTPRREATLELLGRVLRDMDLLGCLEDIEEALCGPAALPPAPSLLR

Sequence of UniProt P25118 (P25118 30-454): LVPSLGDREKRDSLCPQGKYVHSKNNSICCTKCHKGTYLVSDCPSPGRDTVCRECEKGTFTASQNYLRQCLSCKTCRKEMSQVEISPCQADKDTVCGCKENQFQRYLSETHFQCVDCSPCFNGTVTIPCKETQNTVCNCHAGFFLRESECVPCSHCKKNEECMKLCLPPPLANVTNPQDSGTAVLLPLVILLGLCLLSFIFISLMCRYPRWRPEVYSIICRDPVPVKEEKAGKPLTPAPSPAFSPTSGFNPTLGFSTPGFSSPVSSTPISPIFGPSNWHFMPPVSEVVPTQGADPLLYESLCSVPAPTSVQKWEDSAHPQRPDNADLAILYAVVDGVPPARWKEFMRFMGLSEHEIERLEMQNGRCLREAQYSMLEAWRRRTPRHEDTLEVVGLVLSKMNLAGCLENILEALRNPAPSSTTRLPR

L929 ND50 [1]: 5.4 nM
MRC5 ND50 [2]: 1.97 nM
B1: DMS0136 (bispecific antibody)
chain: EVQLLESGGGLVQPGGSLRLSCAASGFTFVKYSMGWVRQAPGKGLEWVSQISDTADRTYYAH[about 20 residues omitted]MNSLRAEDTAVYYCAIYTGRWVPFEYWGQGTLVTVSSASTDIQMTQSPSSLSASVGDRVTITCRASRPIGTTLSWYQQKPGKAPKLLILWNSRLQSGVPSRFSGSGSGTDFTLTISSLQPEDFATYYCAQAGTHPTTFGQGTKVEIKR
